No constants are given. Whether binding was seen depends on the method and setting. For part of these data: In cells and extracts the contact can be indirect. Some entries that bind do so weakly or less than the wild type.

Protein sequences, listed by entry. Tags and fused reporters are not part of them. Lines headed by an entry give the natural chain unless they say otherwise; changes in a name come on top. Residues count along the entry.
UniProt Q92556: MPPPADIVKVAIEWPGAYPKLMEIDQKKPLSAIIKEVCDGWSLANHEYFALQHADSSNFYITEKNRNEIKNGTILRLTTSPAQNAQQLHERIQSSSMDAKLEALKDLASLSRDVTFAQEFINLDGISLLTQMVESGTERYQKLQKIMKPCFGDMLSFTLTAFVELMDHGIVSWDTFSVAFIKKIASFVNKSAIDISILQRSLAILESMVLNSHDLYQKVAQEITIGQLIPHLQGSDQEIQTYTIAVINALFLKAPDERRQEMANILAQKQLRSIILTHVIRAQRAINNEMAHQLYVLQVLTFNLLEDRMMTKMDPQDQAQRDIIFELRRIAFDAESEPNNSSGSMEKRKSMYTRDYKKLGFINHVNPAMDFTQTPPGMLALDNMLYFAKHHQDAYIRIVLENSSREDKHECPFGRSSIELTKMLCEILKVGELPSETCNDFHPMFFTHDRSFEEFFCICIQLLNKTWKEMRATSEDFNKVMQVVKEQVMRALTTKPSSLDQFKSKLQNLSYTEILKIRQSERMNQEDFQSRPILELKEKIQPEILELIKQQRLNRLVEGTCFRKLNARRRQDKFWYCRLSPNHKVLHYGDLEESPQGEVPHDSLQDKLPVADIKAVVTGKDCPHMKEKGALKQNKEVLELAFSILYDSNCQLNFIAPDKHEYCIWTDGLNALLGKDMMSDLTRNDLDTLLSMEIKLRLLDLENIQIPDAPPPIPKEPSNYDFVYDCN
UniProt Q9HC29: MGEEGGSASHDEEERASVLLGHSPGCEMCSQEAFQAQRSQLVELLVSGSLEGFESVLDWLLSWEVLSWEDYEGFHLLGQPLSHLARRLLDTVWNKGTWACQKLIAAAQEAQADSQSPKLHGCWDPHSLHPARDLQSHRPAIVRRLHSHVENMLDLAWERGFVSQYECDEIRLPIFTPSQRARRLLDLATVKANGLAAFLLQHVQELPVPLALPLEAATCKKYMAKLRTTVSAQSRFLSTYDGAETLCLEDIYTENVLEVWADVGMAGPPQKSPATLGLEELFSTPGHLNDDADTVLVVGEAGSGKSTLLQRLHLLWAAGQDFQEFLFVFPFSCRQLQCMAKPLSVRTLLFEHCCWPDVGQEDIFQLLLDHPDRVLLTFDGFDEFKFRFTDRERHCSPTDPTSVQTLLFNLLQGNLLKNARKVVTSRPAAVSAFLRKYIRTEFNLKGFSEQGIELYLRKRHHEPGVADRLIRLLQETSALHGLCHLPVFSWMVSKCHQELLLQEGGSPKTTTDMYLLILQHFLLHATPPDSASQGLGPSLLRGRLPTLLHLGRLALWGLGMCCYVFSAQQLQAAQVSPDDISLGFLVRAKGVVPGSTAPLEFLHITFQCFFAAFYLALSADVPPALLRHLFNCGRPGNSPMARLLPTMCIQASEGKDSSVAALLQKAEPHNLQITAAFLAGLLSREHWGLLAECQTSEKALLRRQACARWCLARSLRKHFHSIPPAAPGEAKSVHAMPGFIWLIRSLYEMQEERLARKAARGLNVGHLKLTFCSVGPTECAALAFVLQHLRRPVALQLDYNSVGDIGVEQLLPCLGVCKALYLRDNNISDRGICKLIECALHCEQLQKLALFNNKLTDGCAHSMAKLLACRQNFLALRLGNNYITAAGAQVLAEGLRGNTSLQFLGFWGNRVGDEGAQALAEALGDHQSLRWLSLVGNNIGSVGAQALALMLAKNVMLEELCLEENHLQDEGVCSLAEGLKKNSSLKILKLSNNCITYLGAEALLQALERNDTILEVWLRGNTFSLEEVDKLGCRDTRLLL
GST-NOD2-LRR: residues 744-1040 of Q9HC29

Test [1] concerns the target GST-ELMO1 full length (FL) (UniProt Q92556). Briefly: pull-down; GST, GST-ELMO1 FL and GST-ELMO1 CT immobilized on glutathione beads; soluble recombinant His-NOD2 CARD or His-NOD2 LRR incubated with the beads; bound NOD2 detected with anti-His antibody; both purified.
Test [2] addresses Flag-tagged ELMO1 (Engulfment and Cell Motility Protein-1) (UniProt Q92556). Briefly: co-IP; HEK293 cells co-transfected with Flag-ELMO1 and HA-NOD2 (WT or mutant); lysed in NP buffer; about 1 mg lysate with ANTI-FLAG M2 Affinity Gel overnight at 4°C; immunoblot.
The target of test [3] is GST-NOD2-LRR (UniProt Q9HC29). Put plainly: pull-down; purified GST-NOD2-LRR immobilized on GST beads overnight at 4°C, incubated with His-ELMO-CT or His-ELMO-FL for 4h at 4°C; anti-His immunoblot; also with varying concentrations of GST-NOD2-LRR (Figure S1); both purified.

As for “His-NOD2 LRR (from UniProt Q9HC29 744-1040) (domain or fragment)”, in test [1], the binding entry was “binds”.

For “HA-tagged NOD2 (Nucleotide-binding oligomerization domain-containing protein 2), wild type (from UniProt Q9HC29 1-1040)”, in test [2], the binding result is listed as “binds”.

Take “His-ELMO1 FL (from UniProt Q92556 1-727)”: the binding result in test [3] was “binds”.

Turning to “HA-NOD2 G908R (from UniProt Q9HC29 1-1040)”, the binding entry in test [2] was “binds”.

Consider “HA-NOD2 R702W (from UniProt Q9HC29 1-1040)”, for which, in test [2], the binding entry was “binds”.

“His-NOD2 CARD (from UniProt Q9HC29 28-265) (domain or fragment)”: in test [1], the binding entry was “no binding”.

The values above are taken from publication PMC9980453.
